In publication PMC9911399, “Two distinct binding modes provide the RNA-binding protein RbFox with extraordinary sequence specificity” one finds binding signal data, which are given here for 31 molecules.

To fix the notation:
T1: RBFOX1 RRM RbFoxmut (Fox-RRM*) (Homo sapiens, UniProt Q9NWB1 109-208, R118D;E147R;N151S;E152T)
T1 sequence: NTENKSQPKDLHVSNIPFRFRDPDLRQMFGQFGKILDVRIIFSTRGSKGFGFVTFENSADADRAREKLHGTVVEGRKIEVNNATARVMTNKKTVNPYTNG

B1: GCACCCC (DNA:RNA)
RNA: GGGAGACCGGAAUUCAGAUUGUCCGCACCCCUUAAAUCCCGUCGUAGCCACCA
DNA 1: CAATCTGAATTCCGGTCTCCC
DNA 2: TGGTGGCTACGACGGGATT
B2: GUGCCCC (DNA:RNA)
RNA: B1 RNA with C26U, A27G
DNA 1: CAATCTGAATTCCGGTCTCCC
DNA 2: TGGTGGCTACGACGGGATT
B3: AGGUCCU (DNA:RNA)
RNA: B1 RNA with G25A, C26G, A27G, C28U, C31U
DNA 1: CAATCTGAATTCCGGTCTCCC
DNA 2: TGGTGGCTACGACGGGATT
B4: CGUUGAG (DNA:RNA)
RNA: GGGAGACCGGAAUUCAGAUUGUCCCGUUGAGUUAAAUCCCGUCGUAGCCACCA
DNA 1: CAATCTGAATTCCGGTCTCCC
DNA 2: TGGTGGCTACGACGGGATT
B5: CCGUCCC (DNA:RNA)
RNA: B1 RNA with G25C, A27G, C28U
DNA 1: CAATCTGAATTCCGGTCTCCC
DNA 2: TGGTGGCTACGACGGGATT
B6: UACUCUU (DNA:RNA)
RNA: B4 RNA with C25U, G26A, U27C, G29C, A30U, G31U
DNA 1: CAATCTGAATTCCGGTCTCCC
DNA 2: TGGTGGCTACGACGGGATT
B7: GUGUCGU (DNA:RNA)
RNA: B1 RNA with C26U, A27G, C28U, C30G, C31U
DNA 1: CAATCTGAATTCCGGTCTCCC
DNA 2: TGGTGGCTACGACGGGATT
B8: AAAUAAC (DNA:RNA)
RNA: B4 RNA with C25A, G26A, U27A, G29A, G31C
DNA 1: CAATCTGAATTCCGGTCTCCC
DNA 2: TGGTGGCTACGACGGGATT
B9: UCCACAG (DNA:RNA)
RNA: B4 RNA with C25U, G26C, U27C, U28A, G29C
DNA 1: CAATCTGAATTCCGGTCTCCC
DNA 2: TGGTGGCTACGACGGGATT
B10: CUCAACU (DNA:RNA)
RNA: B4 RNA with G26U, U27C, U28A, G29A, A30C, G31U
DNA 1: CAATCTGAATTCCGGTCTCCC
DNA 2: TGGTGGCTACGACGGGATT
B11: UCUAGGG (DNA:RNA)
RNA: B4 RNA with C25U, G26C, U28A, A30G
DNA 1: CAATCTGAATTCCGGTCTCCC
DNA 2: TGGTGGCTACGACGGGATT
B12: GAGAGUC (DNA:RNA)
RNA: B1 RNA with C26A, A27G, C28A, C29G, C30U
DNA 1: CAATCTGAATTCCGGTCTCCC
DNA 2: TGGTGGCTACGACGGGATT
B13: GAUAUAG (DNA:RNA)
RNA: B4 RNA with C25G, G26A, U28A, G29U
DNA 1: CAATCTGAATTCCGGTCTCCC
DNA 2: TGGTGGCTACGACGGGATT
B14: AUAAUGC (DNA:RNA)
RNA: B1 RNA with G25A, C26U, C28A, C29U, C30G
DNA 1: CAATCTGAATTCCGGTCTCCC
DNA 2: TGGTGGCTACGACGGGATT
B15: AAGAGAU (DNA:RNA)
RNA: B4 RNA with C25A, G26A, U27G, U28A, G31U
DNA 1: CAATCTGAATTCCGGTCTCCC
DNA 2: TGGTGGCTACGACGGGATT
B16: GAAUACC (DNA:RNA)
RNA: B1 RNA with C26A, C28U, C29A
DNA 1: CAATCTGAATTCCGGTCTCCC
DNA 2: TGGTGGCTACGACGGGATT
B17: CAAUCUC (DNA:RNA)
RNA: B1 RNA with G25C, C26A, C28U, C30U
DNA 1: CAATCTGAATTCCGGTCTCCC
DNA 2: TGGTGGCTACGACGGGATT
B18: UGGAGAA (DNA:RNA)
RNA: B4 RNA with C25U, U27G, U28A, G31A
DNA 1: CAATCTGAATTCCGGTCTCCC
DNA 2: TGGTGGCTACGACGGGATT
B19: AUCGAAA (DNA:RNA)
RNA: B4 RNA with C25A, G26U, U27C, U28G, G29A, G31A
DNA 1: CAATCTGAATTCCGGTCTCCC
DNA 2: TGGTGGCTACGACGGGATT
B20: GCCAACC (DNA:RNA)
RNA: B1 RNA with A27C, C28A, C29A
DNA 1: CAATCTGAATTCCGGTCTCCC
DNA 2: TGGTGGCTACGACGGGATT
B21: GGAAAUC (DNA:RNA)
RNA: B1 RNA with C26G, C28A, C29A, C30U
DNA 1: CAATCTGAATTCCGGTCTCCC
DNA 2: TGGTGGCTACGACGGGATT
B22: CGGCCUG (DNA:RNA)
RNA: B4 RNA with U27G, U28C, G29C, A30U
DNA 1: CAATCTGAATTCCGGTCTCCC
DNA 2: TGGTGGCTACGACGGGATT
B23: AAACCUA (DNA:RNA)
RNA: B1 RNA with G25A, C26A, C30U, C31A
DNA 1: CAATCTGAATTCCGGTCTCCC
DNA 2: TGGTGGCTACGACGGGATT
B24: UACUGCU (DNA:RNA)
RNA: B4 RNA with C25U, G26A, U27C, A30C, G31U
DNA 1: CAATCTGAATTCCGGTCTCCC
DNA 2: TGGTGGCTACGACGGGATT
B25: CGCUCCA (DNA:RNA)
RNA: B4 RNA with U27C, G29C, A30C, G31A
DNA 1: CAATCTGAATTCCGGTCTCCC
DNA 2: TGGTGGCTACGACGGGATT
B26: AACUGCG (DNA:RNA)
RNA: B4 RNA with C25A, G26A, U27C, A30C
DNA 1: CAATCTGAATTCCGGTCTCCC
DNA 2: TGGTGGCTACGACGGGATT
B27: CGAUCCC (DNA:RNA)
RNA: B1 RNA with G25C, C26G, C28U
DNA 1: CAATCTGAATTCCGGTCTCCC
DNA 2: TGGTGGCTACGACGGGATT
B28: UGGUAGA (DNA:RNA)
RNA: B4 RNA with C25U, U27G, G29A, A30G, G31A
DNA 1: CAATCTGAATTCCGGTCTCCC
DNA 2: TGGTGGCTACGACGGGATT
B29: GAACGAU (DNA:RNA)
RNA: B1 RNA with C26A, C29G, C30A, C31U
DNA 1: CAATCTGAATTCCGGTCTCCC
DNA 2: TGGTGGCTACGACGGGATT
B30: GCCUUGU (DNA:RNA)
RNA: B1 RNA with A27C, C28U, C29U, C30G, C31U
DNA 1: CAATCTGAATTCCGGTCTCCC
DNA 2: TGGTGGCTACGACGGGATT
B31: AAGGCUA (DNA:RNA)
RNA: B1 RNA with G25A, C26A, A27G, C28G, C30U, C31A
DNA 1: CAATCTGAATTCCGGTCTCCC
DNA 2: TGGTGGCTACGACGGGATT

Numbering of substitutions follows the chain as printed; changes in the protein carry UniProt numbers. The list shows a part of the results.

The target in the assay is T1, RBFOX1 RRM RbFoxmut (Fox-RRM*). The assay is described as follows: EMSA; HiTS-Eq, 1 nM pool, 10 min; buffer printed only for the single-RNA assays: 10 mM Tris pH 7.5, 150 mM NaCl, 3.4 mM EDTA, 0.001% NP-40, 30 C. To be noted: tags: His6 N-terminal (pET28a); label: 5' 32P. The method in brief:
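Purified RbFox RRM (wild type or mutant) was equilibrated for 10 min in 50 µL with 1 nM of a 5′-radiolabelled pool of RNA with 7 randomized nucleotides, its flanks annealed to DNA oligonucleotides, across increasing protein concentrations. Free RNA was separated by 8% native PAGE, excised, reverse-transcribed, PCR-barcoded and sequenced on an Illumina HiSeq 2500. Relative association constants came from read-count changes of each variant against the control reaction, normalised to the cognate motif.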
(In general: A gel shift assay detects complexes by their altered migration in electrophoresis.)
On to B1, for which the binding signal is 0.0363 KA relative to UGCAUGU.

Consider B2, for which the binding signal was 0.0593 KA relative to UGCAUGU.

With B3, the binding signal is 0.0545 KA relative to UGCAUGU. As for B4, the binding signal is 0.111 KA relative to UGCAUGU.

Take B5: the binding signal was 0.039 KA relative to UGCAUGU. To B6 belongs 0.0723 KA relative to UGCAUGU; to B7, 0.164 KA relative to UGCAUGU; to B8, 0.0842 KA relative to UGCAUGU.

On to B9, for which the binding signal is 0.0955 KA relative to UGCAUGU. For the molecule B10, the binding signal was 0.104 KA relative to UGCAUGU. To B11 belongs 0.0945 KA relative to UGCAUGU; to B12, 0.0957 KA relative to UGCAUGU.

For the molecule B13, the binding signal was 0.114 KA relative to UGCAUGU. B14: the binding signal is 0.0927 KA relative to UGCAUGU. As for B15, the binding signal was 0.079 KA relative to UGCAUGU.

In the case of B16, the binding signal is 0.0425 KA relative to UGCAUGU. Then B17, with 0.0604 KA relative to UGCAUGU; and B18, with 0.0999 KA relative to UGCAUGU; and B19, with 0.0923 KA relative to UGCAUGU.

For B20, the binding signal is 0.0428 KA relative to UGCAUGU. As for B21, the binding signal is 0.0872 KA relative to UGCAUGU. To B22 belongs 0.266 KA relative to UGCAUGU; to B23, 0.0902 KA relative to UGCAUGU; to B24, 0.109 KA relative to UGCAUGU. To B25 belongs 0.0681 KA relative to UGCAUGU. Turning to B26, the binding signal is 0.0952 KA relative to UGCAUGU. Then B27, with 0.0671 KA relative to UGCAUGU. As to B28, the binding signal was 0.128 KA relative to UGCAUGU. In the case of B29, the binding signal was 0.166 KA relative to UGCAUGU. Then B30, with 0.714 KA relative to UGCAUGU. With B31, the binding signal was 0.12 KA relative to UGCAUGU.
